Measurements from the supplement of paper PMC3334620.
Whole data set: some 33,000 sequences, median “E-score (-0.5 to 0.5)” near -0.017, cut for the highest 2% near 0.3. This is one part of the list.

What follows are sequences tested against T1, Sut1 (UniProt P53032) (assay: PBM E-score (8-mer binding enrichment) (E-score (-0.5 to 0.5)); higher = stronger / more preferred TF binding; most listed sequences are background and not binding sites). Details: protein concentration: 200 nM; construct: GST-full length.
T1 sequence: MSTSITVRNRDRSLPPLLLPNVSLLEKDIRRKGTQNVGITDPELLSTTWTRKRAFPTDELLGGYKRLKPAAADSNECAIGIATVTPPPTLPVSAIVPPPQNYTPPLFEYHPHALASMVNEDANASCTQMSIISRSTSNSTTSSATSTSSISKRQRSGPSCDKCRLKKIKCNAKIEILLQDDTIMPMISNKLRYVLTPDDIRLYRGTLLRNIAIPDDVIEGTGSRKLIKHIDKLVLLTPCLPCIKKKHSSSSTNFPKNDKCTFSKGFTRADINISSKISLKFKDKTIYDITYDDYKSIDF
Method: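 Universal 'all 10-mer' protein binding microarrays (Agilent AMADID 015681) probed with GST-tagged S. cerevisiae TFs (full-length or DBD) made by in vitro transcription/translation (PURExpress), about 100-200 nM. Bound TF was detected with fluorescent anti-GST. Each ungapped 8-mer (which stands for itself and its reverse complement) is scored by the PBM enrichment score (E-score), a modified Wilcoxon-Mann-Whitney statistic from -0.5 to +0.5, computed with the Universal PBM Analysis Suite. Scale: above 0.35 generally sequence-specific binding.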
With GATGTTGC the “PBM E-score” value was 0.00396. In the case of CACCCACG, the “PBM E-score” value is reported as -0.0788. ATATGGCA was tested, and the “PBM E-score” value was -0.036. For GCTGCCAA, the “PBM E-score” value was -0.147. In the case of CGCTGTCA, the “PBM E-score” value is reported as -0.0571. In the case of ACCAGTTA, the “PBM E-score” value is reported as 0.13. In the case of CCGTTTAA, the “PBM E-score” value is reported as 0.196. With AGTGTCTC the “PBM E-score” value was -0.0924. For AATCCTCG, the “PBM E-score” value was -0.164. For GTGTATCA, the “PBM E-score” value was 0.17. With GCTGCGGA the “PBM E-score” value was 0.245. GGACCCTA was tested, and the “PBM E-score” value was -0.234. With ACAACAAG the “PBM E-score” value was 0.0827. In the case of CAGCACAC, the “PBM E-score” value is reported as -0.223. For ACTTCCCC, the “PBM E-score” value was -0.252. In the case of TTCGACAA, the “PBM E-score” value is reported as 0.0817. In the case of ACGTGCAT, the “PBM E-score” value is reported as -0.0593. For CTAGCACA, the “PBM E-score” value was -0.135. CGAGTAAC was tested, and the “PBM E-score” value was 0.152. With CCCCAACG the “PBM E-score” value was -0.122. CTTAGGGA was tested, and the “PBM E-score” value was -0.225. With ACTCGTCA the “PBM E-score” value was -0.109. For AAGTTAGG, the “PBM E-score” value was -0.0983. For ACTCCATC, the “PBM E-score” value was 0.156. For AGTGTCAG, the “PBM E-score” value was -0.0827. In the case of GACTCTAC, the “PBM E-score” value is reported as -0.0699. In the case of ATTAACCG, the “PBM E-score” value is reported as 0.162. In the case of CAGTACTG, the “PBM E-score” value is reported as -0.247. With ATGGATGC the “PBM E-score” value was -0.0754. TACTGGAA was tested, and the “PBM E-score” value was 0.012. For GGAGGGCA, the “PBM E-score” value was -0.112. In the case of CGGTCTAG, the “PBM E-score” value is reported as -0.0195. For CAATTTCA, the “PBM E-score” value was 0.00344. With AAAATACG the “PBM E-score” value was 0.223. With CACAGCGC the “PBM E-score” value was -0.202. For GTCCTAAC, the “PBM E-score” value was -0.14. With CAATCGTA the “PBM E-score” value was 0.181. In the case of ACTAGGGC, the “PBM E-score” value is reported as -0.224. For AAGGGGGG, the “PBM E-score” value was -0.395. With ATCCAAAG the “PBM E-score” value was 0.202. For CGCCGCCG, the “PBM E-score” value was -0.0805. AGATAATG was tested, and the “PBM E-score” value was 0.106. For CGTTTGCC, the “PBM E-score” value was -0.00944. In the case of GCCATCGC, the “PBM E-score” value is reported as -0.234. For ATGAGGAC, the “PBM E-score” value was -0.19. With CACGCCGG the “PBM E-score” value was 0.0532. TGAAAAAA was tested, and the “PBM E-score” value was 0.248. With ATTATTAA the “PBM E-score” value was 0.236. In the case of ACGCGCGG, the “PBM E-score” value is reported as 0.147. In the case of ACAATCGA, the “PBM E-score” value is reported as -0.0391. For ACAAAGTG, the “PBM E-score” value was 0.0464. In the case of TATACTGA, the “PBM E-score” value is reported as 0.292. CTCATAGA was tested, and the “PBM E-score” value was 0.0624. In the case of CACATGGA, the “PBM E-score” value is reported as -0.124. For TGATTCAA, the “PBM E-score” value was 0.119. For CAACCGGG, the “PBM E-score” value was -0.129. For ATGAATAC, the “PBM E-score” value was 0.132. For TCGCCCAA, the “PBM E-score” value was -0.12. For TGTGATAA, the “PBM E-score” value was 0.172. For AAGTGCAA, the “PBM E-score” value was -0.0212. AAACATGG was tested, and the “PBM E-score” value was -0.0258. With ATGCACAA the “PBM E-score” value was -0.00059. In the case of AGGGCAGC, the “PBM E-score” value is reported as -0.129. For GTTGTAAA, the “PBM E-score” value was 0.0974. With ATATGATG the “PBM E-score” value was 0.19. In the case of TCCTAAGA, the “PBM E-score” value is reported as -0.156. In the case of GCTTGATA, the “PBM E-score” value is reported as 0.0126. For ACCAGCGC, the “PBM E-score” value was -0.182. With GAATAAAA the “PBM E-score” value was 0.242. CGTCGGTA was tested, and the “PBM E-score” value was -0.229. With AGTCACCC the “PBM E-score” value was -0.0174. With ATATCGGG the “PBM E-score” value was -0.0571. TCAAATGA was tested, and the “PBM E-score” value was 0.174. With AATGAAGT the “PBM E-score” value was 0.059. GCATCCCC was tested, and the “PBM E-score” value was -0.0582. In the case of ACGTGTAG, the “PBM E-score” value is reported as -0.224. In the case of ACCACGTG, the “PBM E-score” value is reported as -0.126. AACGGGAA was tested, and the “PBM E-score” value was 0.219. In the case of GCATACAA, the “PBM E-score” value is reported as 0.0888. With ACGGCGAG the “PBM E-score” value was -0.135. In the case of GGACTCTA, the “PBM E-score” value is reported as 0.25. For ACTCTAAA, the “PBM E-score” value was 0.215. With CTGAAGTC the “PBM E-score” value was 0.0851. In the case of ATTAAGTC, the “PBM E-score” value is reported as 0.218. With CATAATCG the “PBM E-score” value was 0.112. AAGAGGTG was tested, and the “PBM E-score” value was -0.0341. For CTACCGCA, the “PBM E-score” value was -9e-05. With ACTACTAG the “PBM E-score” value was 0.0721. AGGTATTA was tested, and the “PBM E-score” value was 0.17. For AGCGCGCT, the “PBM E-score” value was 0.0133. GCTTGCCA was tested, and the “PBM E-score” value was -0.142. For TCGGCGAA, the “PBM E-score” value was 0.0741. In the case of AGGTGAGG, the “PBM E-score” value is reported as -0.115. GCCCTGCC was tested, and the “PBM E-score” value was -0.235. CCCGGCAA was tested, and the “PBM E-score” value was 0.072. AGAAGTCC was tested, and the “PBM E-score” value was 0.238. In the case of CCGGCCGG, the “PBM E-score” value is reported as 0.257. CTGAACGC was tested, and the “PBM E-score” value was -0.144. For CAATACGC, the “PBM E-score” value was -0.0844. For GGTGACAA, the “PBM E-score” value was -0.0837. With GCATCACC the “PBM E-score” value was -0.196. In the case of TTCCTAAA, the “PBM E-score” value is reported as -0.0683. ATCCAGTG was tested, and the “PBM E-score” value was -0.0456. With CCGCGTTA the “PBM E-score” value was 0.00862. For ACGTCGGG, the “PBM E-score” value was -0.202. In the case of GCCGGACA, the “PBM E-score” value is reported as 0.273. CTCCTGGA was tested, and the “PBM E-score” value was -0.276. For GCGCTCGA, the “PBM E-score” value was -0.165. For TAATTCTA, the “PBM E-score” value was 0.237. In the case of CTCAGGAA, the “PBM E-score” value is reported as 0.0141. For GATTAGGA, the “PBM E-score” value was 0.059. With TTAAGCAA the “PBM E-score” value was 0.141. CTGAGACA was tested, and the “PBM E-score” value was -0.0695. For AGTTTAAG, the “PBM E-score” value was 0.158. AGGAACCT was tested, and the “PBM E-score” value was -0.00543. For ACTCGCTC, the “PBM E-score” value was -0.0565. ATAGGCAA was tested, and the “PBM E-score” value was -0.187. ATGTTATA was tested, and the “PBM E-score” value was 0.233. AGCCCATA was tested, and the “PBM E-score” value was -0.137. For GACTGTGA, the “PBM E-score” value was -0.0308. For AGCTCTTA, the “PBM E-score” value was 0.0472. With GGCCGCCA the “PBM E-score” value was -0.203. In the case of CCATCTCC, the “PBM E-score” value is reported as 0.256. For CTAGATGC, the “PBM E-score” value was -0.05. For AGGATTCC, the “PBM E-score” value was -0.247. In the case of CGACTCGA, the “PBM E-score” value is reported as -0.0972. CGTCGGAA was tested, and the “PBM E-score” value was 0.196. AGGCTTAA was tested, and the “PBM E-score” value was 0.0748. For AAATGAAA, the “PBM E-score” value was 0.265. With CTCCGAAA the “PBM E-score” value was 0.46. With CGCAAAGC the “PBM E-score” value was 0.0688. ACGAGGGA was tested, and the “PBM E-score” value was -0.0733. With GAGATGGA the “PBM E-score” value was -0.134. In the case of ATCTCCGC, the “PBM E-score” value is reported as 0.399. GGTATGTA was tested, and the “PBM E-score” value was 0.0515. CAAGAACA was tested, and the “PBM E-score” value was -0.0381. For ACCCATCT, the “PBM E-score” value was -0.0338. For CCACTTGC, the “PBM E-score” value was -0.0264. CACACGTA was tested, and the “PBM E-score” value was -0.169. For CCGTTGCG, the “PBM E-score” value was 0.0775. In the case of GAGAAACA, the “PBM E-score” value is reported as 0.165. In the case of CGGAGGGA, the “PBM E-score” value is reported as -0.0584. GCAGCGGC was tested, and the “PBM E-score” value was -0.219. For AAAGCCGC, the “PBM E-score” value was 0.0223. For ATCCCTAA, the “PBM E-score” value was -0.184. For CGGCCAAC, the “PBM E-score” value was -0.127. GAGTGTGA was tested, and the “PBM E-score” value was 0.0613. In the case of ACCGTCCT, the “PBM E-score” value is reported as -0.128. For CCTTGGAG, the “PBM E-score” value was -0.216. For AGGTAGTG, the “PBM E-score” value was -0.162. With AACGATTG the “PBM E-score” value was 0.00912. With AAATTGGA the “PBM E-score” value was 0.173. ACCAGGTA was tested, and the “PBM E-score” value was -0.247. For ACGGTTAT, the “PBM E-score” value was -0.0633. CAATGAGA was tested, and the “PBM E-score” value was -0.0608. AGTGGCCG was tested, and the “PBM E-score” value was -0.0637. With CGTGACCC the “PBM E-score” value was -0.111. For GTTTCTTA, the “PBM E-score” value was 0.0332. With CCCATCGC the “PBM E-score” value was -0.189. ATGTCGGA was tested, and the “PBM E-score” value was 0.171. For GAATTACA, the “PBM E-score” value was 0.197. For GCGGGAAA, the “PBM E-score” value was 0.0939. With AGATCGAA the “PBM E-score” value was 0.127. In the case of CTCTCGCC, the “PBM E-score” value is reported as -0.182. In the case of GGCTGAAA, the “PBM E-score” value is reported as 0.156. For TCTAGAGA, the “PBM E-score” value was -0.0781. With CGTATTAG the “PBM E-score” value was 0.15. With AGATAGTC the “PBM E-score” value was -0.132. In the case of ATTCATCC, the “PBM E-score” value is reported as 0.0522. For AAAAGGTT, the “PBM E-score” value was 0.189. With CAGTGATC the “PBM E-score” value was -0.16. In the case of CCCTGAGG, the “PBM E-score” value is reported as -0.198.
